{
  "source": "PubChem BioAssay AID686979",
  "about": "(National Center for Advancing Translational Sciences (NCATS), 2013)",
  "note": "Hit rate of the full screen: of about 420,000 compounds, about 50,000 (12%) were called active. The inconclusive results got no clear call from the source; some entries with a clear call stand among them for comparison. Calls follow the shape of the dose curve; as a rule, active = well fitted inhibition curve with a large enough effect; inconclusive = small, poorly fitted or top-dose-only effect; inactive = flat fitted curve, though single readings scatter. Potencies of inconclusive entries are left out as doubtful fits. % is scaled to controls: 0 for no effect and ±100 for the full control effect; potency is read from the fitted curve at half-maximal effect; tags tell the direction and shape of the fitted curve.",
  "data": [
    {"assay": "qHTS for Inhibitors of human tyrosyl-DNA phosphodiesterase 1 (TDP1): qHTS in cells in presence of CPT; also: nearly all actives have a fitted effect of over 55% in size", "settings": "chicken DT40 Tdp1-/-;hTDP1 cells + 20 nM CPT, ATP luminescence, 48 h; activity change, negative = growth inhibition: at 46.2 µM (top of the series)", "in_short": "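Chicken DT40 Tdp1-/- cells complemented with human TDP1, 400 cells/well, exposed to compounds plus 20 nM camptothecin for at least 48 h at 37 C; viability read as ATP content by CellTiter-Glo luminescence.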", "values": [
      {"smiles": "Cc1ccc(S(=O)CCNC(=O)Cc2ccc(Cl)cc2)cc1", "note": "(stereo not drawn)", "Potency": "inactive"},
      {"smiles": "COc1cc(OC)c(N(C)S(=O)(=O)c2cccc(C(=O)NC(C)C3CC4CCC3C4)c2)cc1Cl", "note": "(stereo not drawn)", "Potency": "active: 18.4 µM"},
      {"smiles": "Cc1cccc(-c2nnc(SCC#N)n2C)c1", "Potency": "inconclusive [inhibitor, single point]"},
      {"smiles": "COCCNC(=O)C1(C)Cc2c(-c3ccc(NC(C)=O)cc3)ccnc2O1", "note": "(stereo not drawn)", "Potency": "inconclusive [inhibitor, single point]"},
      {"smiles": "CC(C)(C)c1ccc(C(=O)C2CCCN(C(=O)c3ccccn3)C2)cc1", "note": "(stereo not drawn)", "Potency": "active: 9.2 µM"},
      {"smiles": "CN(C)C(=O)COc1ccc(C(=O)/C=C/c2cccnc2)cc1", "Potency": "active: 16.4 µM"},
      {"smiles": "CCOC(=O)c1sc(Nc2ccc(Br)cc2)nc1C", "Potency": "inconclusive [inhibitor, single point]"},
      {"smiles": "CC(=O)Nc1cccc(Oc2nc(C)cc(C)c2C#N)c1", "Potency": "inconclusive [inhibitor, single point]"},
      {"smiles": "CCOC(=O)N1CCN(C(=O)c2ccc(N(Cc3ccc(Cl)cc3)S(C)(=O)=O)cc2)CC1", "Potency": "inconclusive [inhibitor, single point]"},
      {"smiles": "CS/C(=C(/C#N)S(=O)(=O)c1ccc(Cl)cc1)N1CCOCC1", "Potency": "inactive"},
      {"smiles": "CN(Cc1c(F)cccc1Cl)C(=O)c1cnc2ccccc2n1", "Potency": "inconclusive [inhibitor, single point]"},
      {"smiles": "COc1ccc(NC(=O)c2cccc(N3C(=O)C4C5C=CC(C5)C4C3=O)c2)cc1Cl", "note": "(stereo not drawn)", "Potency": "active: 23.1 µM"},
      {"smiles": "Fc1ccccc1NC(=S)NNc1ncc(C(F)(F)F)cc1Cl", "Potency": "inconclusive [inhibitor, single point]"},
      {"smiles": "O=C1c2cccc3c([N+](=O)[O-])ccc(c23)C(=O)N1c1ccc(Cl)cn1", "Potency": "active: 3.26 µM"},
      {"smiles": "CNC(=S)Nc1ccc(OC(F)(F)F)cc1", "Potency": "inactive"},
      {"smiles": "CCCN1C(=O)c2cc(C(=O)Nc3ccccc3OC)ccc2C1Nc1ccccc1OC", "note": "(stereo not drawn)", "Potency": "inconclusive [inhibitor, partial curve]"},
      {"smiles": "COc1ccc(OCc2cccc(C(=O)Nc3ccc(CN4CCCCC4)cc3)c2)cc1", "Potency": "inconclusive [inhibitor, single point]"},
      {"smiles": "CCCNC(=O)c1ccc(N2CCC3(CC2)CC(c2ccccc2)=NO3)c(NC(=O)c2ccccc2)c1", "Potency": "active: 5.8 µM"},
      {"smiles": "COC(=O)C1=CN(c2ccc(N3CCOCC3)cc2)C(N)=C(C#N)C1c1cccc(F)c1", "note": "(stereo not drawn)", "Potency": "inconclusive [inhibitor, single point]"},
      {"smiles": "Cc1cc(C)c(C)c(S(=O)(=O)N2CCN(CC(=O)Nc3sccc3C#N)CC2)c1C", "Potency": "active: 25.9 µM"},
      {"smiles": "CCn1cc(C(=O)N2CCN(C3CCCCC3)CC2)c2cc(OC)c(OC)cc2c1=O", "Potency": "inconclusive [inhibitor, single point]"},
      {"smiles": "Cc1cc(C(=O)N=Nc2c(O)n(C(C)C)c3ccccc23)n[nH]1", "Potency": "inconclusive [inhibitor, single point]"},
      {"smiles": "CCNC(=O)c1ccc2nc(Cc3ccccc3)oc2c1", "Potency": "inconclusive [inhibitor, single point]"},
      {"smiles": "Cc1ccc(OCCC(=O)OCC(=O)NC(=O)c2ccccc2)cc1", "Potency": "inactive"},
      {"smiles": "CCN(CC)CCOC(=O)c1ccc(N/C=C(/C#N)c2nc(-c3ccc4c(c3)OCO4)cs2)cc1", "Potency": "active: 3.66 µM"},
      {"smiles": "O=C(CSc1ncc(CO)n1Cc1ccccc1)Nc1ccc(C(F)(F)F)cc1", "Potency": "active: 14.6 µM"},
      {"smiles": "Cc1cc2c(=O)oc(-c3ccc(F)cc3)nc2s1", "Potency": "inactive"},
      {"smiles": "COc1cc(/C=N/n2cnnc2)ccc1OCCSc1ccc(C)cc1", "activity change, negative = growth inhibition": "inconclusive: -30.1% [inhibitor]"},
      {"smiles": "CCOC(=O)c1c(NC(=O)COc2cccc(C(F)(F)F)c2)sc2c1CCCCC2", "Potency": "inactive"},
      {"smiles": "CCc1ccc(NC(=O)C(=O)NCC2CCCN2S(=O)(=O)c2ccccc2)cc1", "note": "(stereo not drawn)", "Potency": "inconclusive [inhibitor, single point]"},
      {"smiles": "COc1cc2c(cc1OC)C(c1ccccc1Cl)N(C)CC2", "note": "(stereo not drawn)", "Potency": "inconclusive [inhibitor, single point]"},
      {"smiles": "COc1ccc(C(CCN2CCCCC2)c2c(O)cc(OC)cc2OC)cc1", "note": "(stereo not drawn)", "Potency": "active: 18.4 µM"},
      {"smiles": "O=C(Cc1c(Cl)cccc1Cl)Nc1cccc(S(=O)(=O)N2CCOCC2)c1", "Potency": "inactive"},
      {"smiles": "O=C(CCNc1ccc(Cc2ccncc2)cc1)c1cccc([N+](=O)[O-])c1", "Potency": "active: 18.4 µM"},
      {"smiles": "COCCNC(=O)C(c1cccs1)N(Cc1cccs1)C(=O)Cn1nnc2ccccc21", "note": "(stereo not drawn)", "Potency": "inactive"},
      {"smiles": "CCOC(=O)Nc1c(O)ccc2oc(C)c(-c3ccccc3)c12", "activity change, negative = growth inhibition": "inconclusive: -32.8% [inhibitor]"},
      {"smiles": "COc1ccccc1CNc1nc(Oc2cccc(F)c2)c2sccc2n1", "Potency": "inconclusive [inhibitor, single point]"},
      {"smiles": "CC1CCCCN1S(=O)(=O)c1ccc(S(=O)(=O)N(CC(=O)Nc2ccccc2)Cc2cccs2)cc1", "note": "(stereo not drawn)", "Potency": "active: 25.9 µM"},
      {"smiles": "O=C(Nc1nnc(S(=O)(=O)N2CCc3ccccc32)s1)c1ccccc1", "Potency": "inconclusive [inhibitor, single point]"},
      {"smiles": "OC(c1cccc(Cl)c1)c1nc(-c2cc3ccccc3o2)cs1", "note": "(stereo not drawn)", "Potency": "inconclusive [inhibitor, single point]"},
      {"smiles": "Cc1cc(=O)[nH]c(N/N=C/c2ccccc2C(F)(F)F)n1", "Potency": "inactive"},
      {"smiles": "O=C(NC1CCCCC1)C(c1ccc(O)cc1)N(CC1CCCO1)C(=O)C1COc2ccccc2O1", "note": "(stereo not drawn)", "Potency": "inconclusive [inhibitor, single point]"},
      {"smiles": "Cc1ccc(S(=O)(=O)CCC(=O)Nc2nnc(CC(C)C)s2)cc1", "Potency": "active: 20.6 µM"},
      {"smiles": "Cc1ccc2nc(-c3ccco3)c(Cc3ccccc3)n2c1", "Potency": "inconclusive [inhibitor, single point]"},
      {"smiles": "O=C(NCc1cccnc1)C(=O)N/N=C/c1ccccc1[N+](=O)[O-]", "Potency": "inactive"},
      {"smiles": "S=c1[nH]cnc2scc(-c3ccc(Br)cc3)c12", "Potency": "inconclusive [inhibitor, single point]"},
      {"smiles": "CN(C)c1ccc(C2Nc3ccccc3C(=O)N2NS(C)(=O)=O)cc1", "note": "(stereo not drawn)", "Potency": "inactive"},
      {"smiles": "N/C(=N\\OC(=O)CCC1CCCC1)c1cccnc1", "Potency": "inactive"},
      {"smiles": "Cc1ccc(NC2=Nc3ccccc3CS2)cc1", "Potency": "inactive"},
      {"smiles": "Cn1c(SCC(=O)OC2CCCCC2)nnc1-c1ccco1", "Potency": "inactive"},
      {"smiles": "COc1cc(CNc2ccc3[nH]c(=O)[nH]c3c2)ccc1OCc1ccc(F)cc1", "Potency": "inconclusive [inhibitor, single point]"},
      {"smiles": "COc1ccc(CNC(=O)CN2C(=O)CCCc3ccccc32)cc1", "Potency": "inactive"},
      {"smiles": "C[C@H](CO)N1C[C@H](C)[C@@H](CN(C)Cc2ccc(Cl)c(Cl)c2)Oc2c(NC(=O)C3CC3)cccc2C1=O", "Potency": "active: 16.4 µM"},
      {"smiles": "CCN(CC)S(=O)(=O)c1ccc2oc(C(=O)Nc3ccc(Br)cc3F)c(C)c2c1", "Potency": "inconclusive [inhibitor, partial curve]"},
      {"smiles": "Cc1ccc(C(=O)N(C)CC(=O)Nc2ccc(N3CCOCC3)cc2)s1", "Potency": "inactive"},
      {"smiles": "Cc1ccc(-c2nc3ccc(Cl)cn3c2Nc2ccc3c(c2)OCCO3)s1", "Potency": "active: 18.4 µM"},
      {"smiles": "CCOc1ccccc1N(C)C(=O)c1ccc2c(=O)n3c(nc2c1)CCCCC3", "Potency": "inconclusive [inhibitor, partial curve, poor fit]"},
      {"smiles": "Cc1cc(/C=C(\\C#N)C(=O)NCc2ccco2)c(C)n1C1CCCC1", "Potency": "inactive"},
      {"smiles": "COC(=O)[C@]1(Cc2ccccc2)N[C@H](CN(C)S(=O)(=O)c2ccc(C(C)(C)C)cc2)[C@@H]2C(=O)N(C)C(=O)[C@@H]21", "Potency": "active: 18.4 µM"},
      {"smiles": "CCC(C)(C)NC(=O)C(c1cccc(OC)c1OC)N(Cc1ccccc1)C(=O)CCC(=O)Nc1cc(C)on1", "note": "(stereo not drawn)", "Potency": "inconclusive [inhibitor, single point]"},
      {"smiles": "CCOC(=O)C(C)On1c(-n2nc(C)cc2C)nc2ccccc2c1=O", "note": "(stereo not drawn)", "Potency": "inconclusive [inhibitor, single point]"},
      {"smiles": "CCCc1nn(C)c2c(=O)[nH]c(-c3cc(S(=O)(=O)N(CCO)CCO)ccc3OCC)nc12", "Potency": "inconclusive [inhibitor, single point]"},
      {"smiles": "CCN(c1cccc2ccccc12)S(=O)(=O)c1ccc(Cl)nc1", "Potency": "inconclusive [inhibitor, single point]"},
      {"smiles": "Cc1cc(CNC(=O)COc2ccc(F)cc2F)c2ccccc2n1", "Potency": "inconclusive [inhibitor, single point]"},
      {"smiles": "Cc1ccc(Sc2c(C(=O)NCc3ccccc3C)[nH]c3ccccc23)cc1", "Potency": "inconclusive [inhibitor, single point]"},
      {"smiles": "CCOc1cc(CN2CCN(c3ccc(C(C)=O)cc3)CC2)ccc1OC", "Potency": "inconclusive [inhibitor, single point]"},
      {"smiles": "CCn1c(C(=O)Nc2cc(Cl)ccc2C)cc2sc(Cl)cc21", "Potency": "inconclusive [inhibitor, single point]"},
      {"smiles": "COCCN1CC(=O)N2C(c3cccc(C)c3)c3[nH]c4ccccc4c3C[C@H]2C1=O", "note": "(stereo partly drawn)", "Potency": "inconclusive [inhibitor, single point]"},
      {"smiles": "CCC(c1nnnn1-c1ccc2c(c1)OCCO2)N1CCN(c2ccc(C(F)(F)F)cn2)CC1", "note": "(stereo not drawn)", "Potency": "inconclusive [inhibitor, single point]"},
      {"smiles": "CCOC(=O)COc1c(/C=N\\O)cc(Cl)cc1OC", "Potency": "inactive"},
      {"smiles": "CCOC(=O)c1c(NC(=O)/C=C/C(=O)O)sc(C)c1-c1ccc(C)c(C)c1", "Potency": "inconclusive [inhibitor, single point]"},
      {"smiles": "CN1Cc2cc(C(=O)c3ccccc3O)cnc2NC1=O", "Potency": "inconclusive [inhibitor, partial curve]"},
      {"smiles": "CCOc1ccc(CCNC(=O)Cn2ncn3c(cc4ccccc43)c2=O)cc1OCC", "Potency": "inactive"}
    ]}
  ]
}
